Reference: patent publication US20220119490A1 (Genentech, published 2022)

Target: T1, CHL1 extracellular domain (human, UniProt O00533 25-1082)
T1 construct: extracellular domain; Soluble query (streptavidin tetramer) in cell assays; recombinant protein (R&D) in SPR; also called neural cell adhesion molecule L1-like protein; close homolog of L1
T1 sequence (looked up): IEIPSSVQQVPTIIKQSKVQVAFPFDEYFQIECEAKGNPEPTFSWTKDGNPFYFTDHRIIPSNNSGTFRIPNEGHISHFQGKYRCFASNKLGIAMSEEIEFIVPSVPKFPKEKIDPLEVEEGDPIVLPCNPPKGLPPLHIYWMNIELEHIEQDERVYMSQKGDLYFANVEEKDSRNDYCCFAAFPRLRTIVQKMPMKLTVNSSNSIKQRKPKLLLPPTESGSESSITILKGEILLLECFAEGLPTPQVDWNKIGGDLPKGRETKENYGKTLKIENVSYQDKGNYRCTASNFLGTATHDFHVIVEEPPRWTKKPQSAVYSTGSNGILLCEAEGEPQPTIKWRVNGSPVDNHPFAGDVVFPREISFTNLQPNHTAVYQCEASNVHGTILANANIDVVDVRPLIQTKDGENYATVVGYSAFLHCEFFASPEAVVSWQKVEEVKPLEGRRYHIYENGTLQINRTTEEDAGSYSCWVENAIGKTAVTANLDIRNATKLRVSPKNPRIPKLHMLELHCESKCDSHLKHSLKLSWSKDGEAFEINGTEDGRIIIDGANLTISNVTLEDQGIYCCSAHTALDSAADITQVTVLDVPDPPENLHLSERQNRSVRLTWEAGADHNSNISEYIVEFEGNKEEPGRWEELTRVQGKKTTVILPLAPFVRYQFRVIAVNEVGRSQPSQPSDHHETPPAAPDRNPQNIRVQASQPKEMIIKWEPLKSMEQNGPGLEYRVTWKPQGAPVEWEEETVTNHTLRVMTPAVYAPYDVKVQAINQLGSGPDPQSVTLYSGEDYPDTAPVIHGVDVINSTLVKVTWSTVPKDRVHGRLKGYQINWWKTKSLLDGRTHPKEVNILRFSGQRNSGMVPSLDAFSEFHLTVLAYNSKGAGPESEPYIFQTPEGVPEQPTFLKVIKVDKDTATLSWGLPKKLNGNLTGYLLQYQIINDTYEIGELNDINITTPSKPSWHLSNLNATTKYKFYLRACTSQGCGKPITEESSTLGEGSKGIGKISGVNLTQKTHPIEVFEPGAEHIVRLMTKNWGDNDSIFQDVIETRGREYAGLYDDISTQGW
Assay: cell surface interaction assay: streptavidin-tetramerized biotinylated ECD on transfected cells, immunofluorescence

binding result: binds
B1: BTLA expressed on cells (receptor)
chain: not shown
notes: whole, on cells; also called B- and T-lymphocyte attenuator
